Assay results as given in the supplement of paper PMC11417369.
± gives the standard deviation of the averaged measurements. Some of the results follow.

What follows are sequences tested on PfAP2-I AP2 domain 3 (GST-tagged) (assay: gcPBM binding intensity (ln(normalized median fluorescence intensity)); higher = stronger DNA binding).
In short: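 The binding buffer was 1× PBS containing 1% milk, 0.2 mg/ml BSA, 0.5% salmon testes DNA and 0.03% Triton X-100. In it, GST-tagged P. falciparum DNA-binding domains expressed in E. coli were applied for 1 h to an Agilent 4 × 180k array of primer-extended double-stranded 36-bp intergenic genomic probes plus negative controls. Binding intensity, read with Alexa488 anti-GST antibody and a 488 nm scan, is the highest Masliner-normalised natural-log median intensity across replicate spots of either probe orientation.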

| Sequence | gcPBM binding intensity (ln) |
| --- | --- |
| TGAAAGTGTATTAAAGTGCATATTATTTTATCTACC [GTGCAC_site9969] | 9.81 ± 0.24 |
| TTAATCTTCATAAAATGTACAGAAGATTGAATATTC [XGTACX_site6213] | 7.58 ± 0.49 |
| AAATCAAAAACGTTTACACACATTCTTATTTAAATA [CACACA_site790] | 8.04 ± 0.57 |
| TACAGAAATTTATATATATATATATATATATATATA [XGTACX_negctrl_site209] | 9.39 ± 0.54 |
| TACATATATTTTTTATGTACTTACTTGTGTGTTTAT [XGTACX_site5126] | 7.77 ± 0.17 |
| TGAGACATGAATGCAAGTACAAAAAGGAGAACAAAA [XGTACX_site6183] | 8.21 ± 0.7 |
| AAATTATATATAATAAATAATTTCTTTTTCTAAAAG [CACACA_negctrl_site8] | 7.22 ± 0.38 |
| AAAAAAAAAAAAAAAAGTACACACTTTTGCCTACAT [XGTACX_site6583] | 8.86 ± 0.49 |
| TTTTATAATTTCAAAGGATTCTTTAATATTATAAAT [CACACA_negctrl_site1812] | 7.33 ± 0.61 |
| AATAATTGCTAAAGGTGTACAATACGTATATAAGAA [XGTACX_site4910] | 8.9 ± 0.74 |
| TTTCACCATATAAACGTGCACACTACAAAAATATAT [CACACA_site2547] | 11.1 ± 0.35 |
| GGAAAGACAGTTCACAGTACCCAGTAACTCTACGGA [XGTACX_site2009] | 7.33 ± 0.76 |
| TTCATGCTTATATGTGCACACACAAAAGAAAAGAAA [CACACA_site1656] | 10.1 ± 0.27 |
| AAATAATAAATTATAACACACATATATATATATATA [CACACA_site4045] | 9.19 ± 0.28 |
| ATAATACAATTTATAACACACACACTATAATACATA [CACACA_site8338] | 7.98 ± 0.31 |
| TTATATAGGTCATTCATAAATACAGTTTTTAAAAAA [CACACA_negctrl_site1340] | 7.62 ± 0.48 |
| GCATAAATTATCATAACATAAATATAAAAATATAAT [GTGCAC_negctrl_site55] | 7.52 ± 0.41 |
| GATTATTTTATAAGTACACACATTTATATATAATAA [CACACA_site2573] | 7.96 ± 0.41 |
| AAAAAAAAAAGACACACACACACATAAATATAAATA [CACACA_site6215] | 7.69 ± 0.23 |

| Sequence | gcPBM binding intensity (ln) |
| --- | --- |
| ATTTATTTCACAAAAACATGCAGTTTGAAATTGCCA [TGCATGCA_site910] | 7.79 ± 0.56 |
| AATTCATTATATATACGTACATATTTCTGTATAAAA [XGTACX_site6371] | 7.94 ± 0.35 |
| TGTTATATGTTCAAATGTACAAATCATATACATGTT [XGTACX_site3192] | 7.5 ± 0.65 |
| GTGTACAGACACAAAATATATACATATATATATATA [CACACA_negctrl_site1796] | 9.24 ± 0.23 |
| AATATATAAACCGAACGTACATATTTTTTATACACC [XGTACX_site2121] | 8.23 ± 0.24 |
| ATTATTTTCTCATAGAGTACAAATGTTGTTGTTGTC [XGTACX_site1062] | 7.8 ± 0.38 |
| TATTTTCATAATAAAAAAAAATAATTTAAAAAATAT [CACACA_negctrl_site748] | 7.39 ± 0.76 |
| TGTGCACATAATTAGTGTACATTTTTTATTTAGACA [XGTACX_site317] | 10.3 ± 0.88 |
| AATGGCAAAATAGGCACACACACATATACATATATA [CACACA_site1058] | 8.1 ± 0.38 |
| CTTATTGATTTAAAAAGTACATATATGTATATACAC [XGTACX_site4072] | 7.95 ± 0.33 |
| AAAAAAAAAAAAAATACACACATATAAATATAAATA [CACACA_site6189] | 8.04 ± 0.46 |
| AGATTTAAATATCATACACACTTTATATATAATACA [CACACA_site4688] | 7.78 ± 0.59 |
| ATTAGAGAATCGTAACCCAAATGAACATACTTAAAT [GTGCAC_negctrl_site363] | 7.62 ± 0.6 |
| AATTATATTTGAAATACACACATAAAAATCATATAG [CACACA_site3468] | 7.61 ± 0.5 |
| GAGCGTAATCTATTTGCACACTTATTTGTTCTTAAA [CACACA_site673] | 10.1 ± 0.18 |
| GTGTATAATATAGGATGTACAATAAAACACCGATTG [XGTACX_site7429] | 8.28 ± 0.38 |
| ATAAAAACATAAACAAATCAAAAAAAAAAAAAAAAA [CACACA_negctrl_site13] | 8 ± 0.67 |
| TTGTTTATCAACAGCACACACAACAACAACAACAAC [CACACA_site458] | 8.74 ± 0.96 |
| ATGGATTATACGTGCACACATATATACCAATAAATA [CACACA_site4524] | 11.2 ± 0.22 |

| Sequence | gcPBM binding intensity (ln) |
| --- | --- |
| CATTAAAATATGAGATGTACACAATATCTATTATAT [XGTACX_site4979] | 7.82 ± 0.51 |
| ATTTAAATATCTTCTTTTTTTTTTTTTTTTGAAATT [CACACA_negctrl_site1074] | 7.12 ± 0.86 |
| TTTATAATTCCATAATGTACAAATAAAATAAAAAAT [XGTACX_site663] | 7.99 ± 0.51 |
| AAAACTTTTAAAATTTTGTATTCATTCCTTCAACAA [GTGCAC_negctrl_site697] | 7.51 ± 0.76 |
| AGGAGGATAGTTCACAGTACCCAGTAACTCTACGAG [XGTACX_site2008] | 7.36 ± 0.53 |
| AAAATTAATGTTGGTTGTACAAAAATTAAATATGGT [XGTACX_site66] | 8.39 ± 0.32 |
| GTACAAAGGACTATACATAGAAAAATATATATATAT [XGTACX_negctrl_site164] | 9.22 ± 0.26 |
| AAAGATTTAATCTATACATGCAAATATATAGAAAAG [TGCATGCA_site373] | 7.63 ± 0.76 |
| AATAAAAATAGGAAATGTACACATATATATATATAT [XGTACX_site1853] | 9.35 ± 0.21 |
| TATATATACACACACACATGCATGCCGATATATATA [TGCATGCA_site29] | 8.13 ± 0.46 |
| AAAAGATATTTGAATATACACACGATTTAAATTTAA [CACACA_site3865] | 7.57 ± 0.58 |
| GAACAAAATTTTATATGTACATAATATTTATATATA [XGTACX_site3667] | 8 ± 0.2 |
| AGATGCCAAGTATAAAGTACATATCAAAATGTATAT [XGTACX_site456] | 7.68 ± 0.58 |
| TTATTTTATTTTTATACACACATGTTTTAATGTTCA [CACACA_site249] | 7.99 ± 0.59 |
| TTAATAGAAATACGTGCACACTAAAGGGAAAACAAT [CACACA_site4923] | 10.32 ± 0.092 |
| ACAAGTATTAATTACACACTCAAAAAGAAAAAACAA [CACACA_site2281] | 7.75 ± 0.42 |
| ATATATTCTATATATACATGCATATATATTATATGT [TGCATGCA_site185] | 7.72 ± 0.67 |
| ATGCAACTATATATATATATTATATGTATGAATAAT [XGTACX_negctrl_site434] | 7.63 ± 0.41 |
